From ChEMBL document CHEMBL4888484, “Replenishing the malaria drug discovery pipeline: Screening and hit evaluation of the MMV Hit Generation Library 1 (HGL1) against asexual blood stage Plasmodium falciparum ,using a nano luciferase reporter read-out” (2022) come the findings set out here.

The whole screen tested about 150,000 compounds, of which about 540 (0.36%) showed an effect of 50% or more. Some of the results follow.

This assay relates to Plasmodium falciparum. As to the kind of experiment: Primary screen in NF54 nanoGlo assay, in single point, at 2uM, 72h; a lower Z score goes with more inhibition. The following applies: timepoint 72 hour. In kind it is functional, Erythrocyte.
As to `c1cc(CCN2CCC[C@H](Cn3cncn3)C2)ccn1`, the % Inhibition (commonly the drop in the measured response relative to a control, in per cent) is listed as -3% and the Z score was determined as 0.4.
Turning to `c1c[nH]c(C(N[C@H]2CCCNC2)C2CCCCC2)n1` (stereo partly specified), the “% Inhibition” value is -3% and the Z score amounted to 0.38.
`COc1cccc2c1Oc1c(c(=O)n(-c3ccc(C)cc3C)n1CC(=O)Nc1ccccc1C)C2`: the “% Inhibition” value is listed as 2% and the Z score is on record as -0.37.
As to `Cn1ccc2c(cc(C(=O)N3CCN(c4ccccn4)CC3)n2C)c1=O`, the “% Inhibition” value was -14% and the Z score was 1.39.
For `CC[C@H](NC(=O)Nc1ccc(F)cc1)c1nc(C)n[nH]1`, the “% Inhibition” value was -12% and the Z score is listed as 2.17.
As for `CCN(CC)CC#C[C@](O)(c1ccccc1)c1cccnc1`, the “% Inhibition” value is -4% and the Z score turned out to be 0.77.
`COc1cc2c(cc1OC)CN(S(=O)(=O)C1CCCCC1)CC2`: the “% Inhibition” value is on record as -15% and the Z score was 1.88.
On to `CC(=O)N1CCc2cc(NS(=O)(=O)c3ccc(F)c(F)c3)ccc21`, for which the “% Inhibition” value came out at 2% and the Z score was -0.33.
For `CCn1cc(C)c(C(=O)O)c1CC(=O)Nc1ccc(F)cc1Cl`, the “% Inhibition” value amounted to 5% and the Z score is -0.67.
On the same counts, the results for `CCCC1CCCCN1C(=O)C(C)C(=O)O` (stereo unspecified) are -15% and 1.73.
On the same counts, the results for `N#Cc1c(F)ccc(NC(=O)C2(C(F)F)CCCC2)c1N` are 21% and -2.69.
In the case of `Cc1ccc(CN2CC[C@@H]3CN(S(C)(=O)=O)[C@@H]3C2)c(C)c1`, the “% Inhibition” value is given as -6% and the Z score came out at 0.75.
For the molecule `CCCN1CCC(Nc2ccc(-n3ccnn3)cc2)CC1`, the “% Inhibition” value is -11% and the Z score is recorded as 2.2.
With `Cc1cc2c(cc3n2C[C@@](C)(C(=O)NC2CCCCC2)N(Cc2ccccc2F)C3=O)o1`, the “% Inhibition” value is 1% and the Z score is reported as -0.28.
In the case of `O=C(NCCC1=CCCCC1)c1cscn1`, the “% Inhibition” value amounted to 0% and the Z score is -0.07.
Turning to `O=C(NC[C@H]1CCCN1c1ncccn1)Nc1ccccc1`, the “% Inhibition” value is on record as -5% and the Z score was 0.57.
Taken in the same sequence, the figures for `O=c1[nH]c2cc(Cl)c(S(=O)(=O)Cl)cc2[nH]1` were 69% and -7.82.
With `CCC(=O)NCCc1ccc(C(F)(F)F)cn1`, the “% Inhibition” value was -1% and the Z score was determined as 0.13.
On the same counts, the results for `COc1ccc(-c2nc3c([nH]2)CCN(C(=O)NC(C)(C)C)C3)cn1` are -1% and 0.21.
Regarding `O=C(O)CC(NC(=O)C1Cc2ccccc21)c1cccc(Cl)c1` (stereo unspecified), the “% Inhibition” value is listed as 4% and the Z score is listed as -0.81.
For `CC(=O)N1CCN(c2cc(-c3noc([C@@H]4CCCN4Cc4ccccn4)n3)ccn2)CC1`, the “% Inhibition” value is recorded as -3% and the Z score worked out at 0.42.
`CC(C)Oc1ccc(C(=O)NCc2cccnc2-c2ccncc2)cc1`: the “% Inhibition” value came out at 2% and the Z score is recorded as -0.35.
For the molecule `COc1cc([C@@H]2C[C@H](NC(C)=O)C[C@H](CC(C)C)O2)ccc1F`, the “% Inhibition” value was -8% and the Z score came out at 0.74.
With `Cc1csc(-c2cc(S(=O)(=O)Nc3ccc(F)cc3Cl)c(C)s2)n1`, the “% Inhibition” value is -10% and the Z score was 1.18.
With `COc1ccc(-c2noc(CCN(C(=O)COCc3ccccc3)C3CCCCC3)n2)cc1OC`, the “% Inhibition” value was determined as 0% and the Z score is -0.04.
On to `O=C(CN1CCOCC1)Nc1ccc(N2CCCC2)c(F)c1`, for which the “% Inhibition” value was -9% and the Z score was 1.16.
On the same counts, the results for `CC1CC(C)CC(C(=O)NS(=O)(=O)CCCC(F)(F)F)C1` (stereo unspecified) are -13% and 2.09.
On the same counts, the results for `Clc1ccc(CCCc2nc(CN3CCOCC3)no2)cc1` are -9% and 0.96.
For the molecule `O=C(COc1ccc(Cl)cc1)NC[C@@H](c1ccsc1)N1CCCC1`, the “% Inhibition” value amounted to 4% and the Z score is given as -0.44.
Regarding `O=C(COc1ccc(Cl)cc1)NC[C@@]1(O)C=CCCC1`, the “% Inhibition” value was -4% and the Z score is listed as 0.62.
For `Cc1ccoc1C(=O)Nc1cccc2oc(C(F)(F)F)nc12`, the “% Inhibition” value was -5% and the Z score turned out to be 0.88.
In the case of `CCn1ccc(C(=O)N2CCCCC[C@H](Nc3nc(CCOC)ns3)C2)n1`, the “% Inhibition” value turned out to be 22% and the Z score is -2.81.
`CN=C(c1ccccc1)N1CCN(CCc2ccccn2)CC1`: the “% Inhibition” value is 12% and the Z score is reported as -2.04.
For `Cc1cc(=O)c(C(=O)Nc2ccc(-c3ccccn3)cn2)c[nH]1`, the “% Inhibition” value is recorded as 2% and the Z score is recorded as -0.42.
On to `Cc1csc(CNCC2(CS(C)(=O)=O)CC2)n1`, for which the “% Inhibition” value is -11% and the Z score is given as 1.13.
On the same counts, the results for `CCC[C@H]1CN(C(=O)c2ccccc2Cc2ccc(C)cc2)C[C@@H]1N` are 6% and -0.54.
Consider `Fc1cccc2sc(OC3CCNCC3)nc12`, for which the “% Inhibition” value is listed as -1% and the Z score is given as 0.12.
On to `Cc1ccccc1[C@@H]1c2ccsc2CCN1CCC(=O)N1CCCN(C(=O)CC(C)(C)C)CC1`, for which the “% Inhibition” value is recorded as -2% and the Z score is 0.29.
`CCc1nnc(CNC(=O)c2cc(O)cc(C(=O)OC)c2)o1`: the “% Inhibition” value is 5% and the Z score was -1.02.
Taken in the same sequence, the figures for `C[C@@H](C(=O)N1CCOCC1)N1CCC(c2ccn[nH]2)CC1` were -15% and 1.88.
As for `COC[C@H](C)N(C)Cc1cn2ccccc2c1C#N`, the “% Inhibition” value is given as -8% and the Z score is 1.53.
With `CC(C)(C1=CCCCC1)c1noc(C2CN(C(=O)C3CCCCC3)C2)n1`, the “% Inhibition” value is reported as -10% and the Z score turned out to be 1.57.
For the molecule `O=C(c1ccccc1F)N1c2ccccc2CCc2ccccc21`, the “% Inhibition” value is reported as -14% and the Z score is 2.05.
